Measured values: article PMC2270309 (2008)

Molecular target: T1, Mad2-binding motif of Cdc20 (Limits not printed. 111-138 is the conventional Mad2-binding fragment of human Cdc20 around the KILR motif (129-132). Check residues come from the candidate's motif feature, not from the paper.)
T1 chain: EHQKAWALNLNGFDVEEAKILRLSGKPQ
Assay: ITC

B1: Mad2 R133A, D158A (protein)
chain: not shown
Kd: 130 nM

B2: Mad2 R133A, I88A (protein)
chain: not shown
Kd: 200 nM

B3: Mad2 R133A, F151A (protein)
chain: not shown
Kd: 290 nM

B4: Mad2 R133A, L154A (protein)
chain: not shown
Kd: 1210 nM

B5: Mad2 R133A, D160A (protein)
chain: not shown
Kd: 260 nM

B6: Mad2 R133A, S170A (protein)
chain: not shown
Kd: 81 nM

B7: Mad2 R133A, E179A (protein)
chain: not shown
Kd: 160 nM

B8: Mad2 R133A, K200A (protein)
chain: not shown
Kd: 170 nM

B9: Mad2 R133A, L84A (protein)
chain: not shown
Kd: 160 nM

B10: Mad2 R133A, T12A (protein)
chain: not shown
Kd: 110 nM

B11: Mad2 R133A, V181A (protein)
chain: not shown
Kd: 100 nM

B12: Mad2 R133A, V163A (protein)
chain: not shown
Kd: 230 nM
